Hit rate of the full screen: of about 94,000 compounds, about 6,200 (6.6%) were called active. The inconclusive results got no clear call from the source; some entries with a clear call stand among them for comparison. The call rests on the fitted dose curve; in most records, active means well fitted inhibition curve with a large enough effect; inconclusive means small, poorly fitted or top-dose-only effect; inactive means flat fitted curve, though single readings scatter. Where the call is inconclusive, the potency comes from a doubtful curve fit.
test: Cytotoxic Profiling in HEK 293 Cell Line of Diverse Libraries Using Quantitative High-Throughput Screening; details: HEK 293 viability, ATP luminescence (CellTiter-Glo), 48-72 h; series mostly up to 115 µM; further: nearly all actives have a fitted effect of over 60% in size
Procedure, shortened: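 HEK 293 seeded at 250 cells/well receive compound via pintool. After 48 or 72 hr at 37 degree Celsius, 5% CO2 and 95% humidity, CellTiter-Glo is dispensed and luminescence read following 10 min at room temperature.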
Potency means the concentration at half of the fitted maximal effect; tags describe the fitted curve by direction and shape.

SMILES | Potency
O=C1C(N2CCN(S(=O)(=O)c3cccs3)CC2)CCN1CCc1ccccc1 (stereo not drawn) | inconclusive: 56.2 µM [inhibitor, partial curve, poor fit]
CC(C)S(=O)(=O)NCC1Cn2cccc2CN1Cc1ccccc1 (stereo not drawn) | inconclusive: 50.1 µM [inhibitor, partial curve, poor fit]
O=C(C1CCCN([S+](=O)([O-])c2cccs2)C1)N1CCC(c2ccccc2)CC1 (stereo not drawn) | inconclusive: 20 µM [inhibitor, full curve, poor fit]
CN(Cc1cccc(F)c1)C1CN(C(=O)OC(C)(C)C)C1 | inactive
CN1C(=O)c2cccn2CC1C(=O)NCc1cccs1 (stereo not drawn) | inactive
O=C(C1CCc2nnc(C3CCN([S+](=O)([O-])c4ccccc4)CC3)n21)N1CCOCC1 (stereo not drawn) | inactive
COc1ccc(OC)c(CN2CCCn3nc(C)c(-c4cnccc4C)c32)c1 | inconclusive: 70.8 µM [inhibitor, partial curve, poor fit]
COc1ccc(CNC(=O)c2cc(-c3cccc(F)c3)nc3c2cnn3C)cc1 | inconclusive: 50.1 µM [inhibitor, partial curve, poor fit]
CN(C)C(C(=O)NCc1cc(F)c(F)c(F)c1F)c1cccc(F)c1 (stereo not drawn) | inactive
Cc1ccc(C(=O)N[C@H]2C[C@@H](c3nc(-c4ccc5c(c4)OCO5)no3)N(C)C2)cc1 | inconclusive: 89.1 µM [inhibitor, partial curve, poor fit]
C[C@@H]1C(=O)O[C@H]2[C@H]1CC[C@@]1(C)Cc3sc(NS(=O)(=O)c4ccc(F)c(Cl)c4)nc3[C@@H](C)[C@H]21 | inconclusive: 56.2 µM [inhibitor, partial curve, poor fit]
Cc1ccc(NC(=O)Cn2nc3n(c2=O)CCCCC3)c(C)c1 | inactive
COc1ccccc1Nc1ncc2c(n1)CN(C(=O)c1ccc(Cl)cc1)CCN2 | inconclusive: 100 µM [inhibitor, partial curve, poor fit]
O=C(NCc1cccnc1)c1nc(-c2ccc(Cl)cc2)c2ccccn12 | inconclusive: 15.8 µM [inhibitor, full curve]
O=C1CCCN1CCCN1C(=O)[C@H]2CN(Cc3cccc(OC(F)(F)F)c3)C[C@H]2C1=O | inactive
COc1ccc(CNC(=O)c2cc3n(n2)CC(c2ccc4c(c2)OCO4)OC3)cc1OC (stereo not drawn) | inconclusive: 50.1 µM [inhibitor, partial curve, poor fit]
CCc1noc(CN(CC)C(=O)c2ccccc2NCc2sccc2C)n1 | inconclusive: 31.6 µM [inhibitor, partial curve, poor fit]
COc1cccc([S+](=O)([O-])N2CCC3(C2)NC(=O)c2ccccc2O3)c1 (stereo not drawn) | inconclusive: 50.1 µM [inhibitor, partial curve, poor fit]
CCCCCC(=O)N1CCC(=O)N(CC(=O)OCC)c2ccccc2C(OC)C1 (stereo not drawn) | inconclusive: 35.5 µM [inhibitor, partial curve, poor fit]
CNC(=O)c1nc2cccnc2n(-c2ccccc2OC)c1=O | inactive
Cc1ccc(NC(=O)N2CCN(c3nnnn3-c3ccc(Cl)c(C)c3)CC2)cc1F | inconclusive: 56.2 µM [inhibitor, partial curve, poor fit]

SMILES | Potency
Cc1ccc(-n2c(C3CCN(C(=O)c4ccc(C(F)(F)F)cc4)CC3)n[nH]c2=O)cc1 | inactive
C[C@@H](NC(=O)C[C@@H]1c2nc(NC(=O)c3ccco3)sc2C[C@@H]2[C@](C)(CO)[C@H](O)CC[C@]21C)c1ccccc1 | inconclusive: 50.1 µM [inhibitor, partial curve, poor fit]
COc1ccc(-n2c(=O)c(C(=O)N(C)C)nc3cccnc32)cc1 | inactive
CCc1cccc2c(C(CC(=O)NCCc3ccc(OC)c(OC)c3)c3cccc(OC)c3)c[nH]c12 (stereo not drawn) | active: 25.1 µM
CN(C)CCNC(=O)c1nc2nc(-c3ccccc3)c(Nc3ccc(F)cc3)cc2n1C | active: 56.2 µM
CN1C(=O)c2cccn2CC1CNC(=O)COc1ccccc1 (stereo not drawn) | inactive
COc1cc(OC)cc(C(=O)N2CCC(Cc3nc(-c4cccc(OC)c4)no3)CC2)c1 | active: 44.7 µM
COc1ccc(Cl)cc1S(=O)(=O)N1CCC2(CCCNC2)C1 (stereo not drawn) | inconclusive: 89.1 µM [inhibitor, single point]
CN(Cc1ccccc1C(F)(F)F)C(=O)Nc1ccc(Cl)cc1 | inconclusive: 70.8 µM [inhibitor, partial curve, poor fit]
O=C(COc1ccccc1)N1CCCC(c2noc(COc3ccccc3)n2)C1 (stereo not drawn) | inconclusive: 89.1 µM [inhibitor, single point]
CC1(c2ccccc2)N(Cc2ccc(O)cc2)C(=O)OC12CCN(Cc1ccc(C#N)cc1)CC2 (stereo not drawn) | inconclusive: 39.8 µM [inhibitor, full curve]
C[S+](=O)([O-])c1ccc(-c2cc(-c3cccnc3)c3cncn3c2)cc1 | inconclusive: 63.1 µM [inhibitor, partial curve, poor fit]
Cc1nc(CN2CCCC(CCc3ccccc3C(F)(F)F)C2)no1 (stereo not drawn) | inconclusive: 39.8 µM [inhibitor, partial curve]
COc1ccc(CN2CCn3nc(CCC(=O)O)cc3C2)cc1O | inactive
CC1(COc2cccnc2)COc2ccc(C(=O)NCc3cccs3)cc2N1 (stereo not drawn) | inconclusive: 31.6 µM [inhibitor, partial curve, poor fit]
Cc1ccc(-n2nc(C(=O)N3CC[C@](C)(O)C(C)(C)C3)c(O)cc2=O)cc1 | inactive
COC(=O)c1cccc(C(=O)N2CCC(Cc3nc(-c4ccc(F)cc4)no3)CC2)c1 | inconclusive: 28.2 µM [inhibitor, partial curve, poor fit]
CC(=O)N1Cc2ccccc2CC2(CCCN(CC3CCCCC3)C2)C1 (stereo not drawn) | inconclusive: 79.4 µM [inhibitor, single point]
CN1c2cc(C(=O)Nc3ccc(Cl)cc3)ccc2C(=O)N2CCCCC21 (stereo not drawn) | inconclusive: 50.1 µM [inhibitor, partial curve, poor fit]
Cc1noc(C2CC3(CCN(C(=O)CCC4CCCC4)CC3)CN2C)n1 (stereo not drawn) | inactive
CCOC(=O)C1CCCCN1C(=O)c1oc2c(Cl)cc(C)cc2c1C (stereo not drawn) | inactive

SMILES | Potency
COc1ccccc1C(=O)N1CCC2(CC1)N(Cc1cccc(F)c1)C(=O)CS2=O (stereo not drawn) | inactive
COc1cc(OC)cc(-c2nc(C3CC(=O)N(Cc4ccccc4OC)C3)no2)c1 (stereo not drawn) | inconclusive: 50.1 µM [inhibitor, partial curve, poor fit]
COc1cccc(-c2c(C(=O)NC(C)C)nc3sccn23)c1 | inconclusive: 126 µM [inhibitor, single point]
COc1ccc(Cl)cc1-c1ccc2c(c1)C(=O)N1CCN(C(=O)C3CC3)C[C@@H]1C(=O)N2 | inconclusive: 100 µM [inhibitor, partial curve, poor fit]
Cc1ccc(C2Cn3nnc(-c4noc(-c5ccccc5)n4)c3CO2)cc1 (stereo not drawn) | inactive
Cc1nc2cnccn2c1C(=O)NCc1ccc(Cl)cc1 | inconclusive: 56.2 µM [inhibitor, single point]
O[C@@H]1CO[C@H]2[C@@H]1OC[C@@H]2n1nnnc1-c1ccc(-c2ccccc2)cc1 | inconclusive: 112 µM [inhibitor, partial curve]
COc1ccc(Cl)cc1-c1cc2c(cn1)CN(Cc1cccnc1)CCN2 | inconclusive: 63.1 µM [inhibitor, partial curve, poor fit]
O[C@]1(c2ccccc2)CCN(Cc2ccco2)C[C@H]1N1CCCC1 | inconclusive: 50.1 µM [inhibitor, partial curve, poor fit]
COc1ccc(NC(=O)N[C@H]2CO[C@H]3[C@@H]2OC[C@@H]3n2cc(-c3ccccc3)nn2)cc1 | inactive
CN(Cc1ccccc1)Cc1nc2c(n1Cc1ccccc1)C(=O)N(Cc1ccccc1C#N)CCN2 | inconclusive: 79.4 µM [inhibitor, partial curve, poor fit]
Cc1ccc(-c2cc(N3CCCN(C(=O)Cc4ccc(F)cc4)CC3)n[nH]2)cc1C | inconclusive: 56.2 µM [inhibitor, partial curve, poor fit]
Cn1nc(-c2cccs2)cc1-c1nc(C2CCOC2)no1 (stereo not drawn) | inconclusive: 70.8 µM [inhibitor, partial curve, poor fit]
Cc1ccc(CN2C[C@@H](COc3ccncc3)[C@H](C(N)=O)C2)o1 | inactive
O=C(NCc1nnc2ccc(-c3ccccc3)nn12)c1cc(F)ccc1Cl | active: 39.8 µM
COc1ccc(NC(=O)Cn2c(N3CCN(c4ccccc4)CC3)nc(C)cc2=O)cc1OC | inconclusive: 35.5 µM [inhibitor, full curve]
CC(C)Oc1ccc(CN2CCC3(CCNCC3)C2)cc1 | inconclusive: 35.5 µM [inhibitor, partial curve, poor fit]
Cn1nccc1CN1CCC2(CC1)CC(=O)N(c1ccccc1)c1ccccc1O2 | inconclusive: 56.2 µM [inhibitor, partial curve, poor fit]
O=C(c1ccc2c(c1)OCO2)N1CCCC(n2cc(-c3nc(-c4ccccc4)no3)nn2)C1 (stereo not drawn) | inconclusive: 39.8 µM [inhibitor, partial curve, poor fit]
Cc1ccc(C(=O)N2CCC(C(=O)N3CCC(N4Cc5cccn5C4=O)CC3)CC2)cc1 | inactive
CNC(=O)[C@@H]1C[C@H](Oc2cccnc2)CN1C(=O)c1ccco1 | inconclusive: 44.7 µM [inhibitor, partial curve, poor fit]

— PubChem BioAssay AID1345083 (National Center for Advancing Translational Sciences (NCATS), 2018)
